According to PMC12136788:
Some of the results follow.

T1: UNK ZnF1-3 (human, UniProt Q9C0B0 31-174)
T1 sequence: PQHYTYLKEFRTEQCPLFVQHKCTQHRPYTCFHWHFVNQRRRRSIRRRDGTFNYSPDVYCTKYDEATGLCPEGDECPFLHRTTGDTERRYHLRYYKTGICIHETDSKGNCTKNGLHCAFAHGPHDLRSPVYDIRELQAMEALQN

B1: chr14:39627603:39627604:-_ENSG00000182400_ENST00000330149|hu_hu|FALSE|FALSE (ssRNA)
RNA: GGGAGUUCUACAGUCCGACGAUCGAACUUCAUGAUAUCUAACUCAUCCUUGAACCUUGCAGUAUCUUUUGUAAACCUUUCUAUCAAUCCUUGUCCCACUCGAAACCCCAUGUUUUCCAGCUUAGUAAUACAUCGUCCGUUUUCCAACAGAGGAUUGAGCAUCA
B2: chr12:48362563:48362564:+_ENSG00000134291_ENST00000256686|hu_hu|hu_hu_hu_mus_False|8_28 (ssRNA)
RNA: GGGAGUUCUACAGUCCGACGAUCUCCGUCAAGCCCUUCGAUAGACCCUUGCGGGGGAAACUGUAAUCACUUUGUAUGGGGAAGGAAAAGAAACGCCAAAAACUUUCUUUCUUUCUUGGGUGGGGUGUCCCAGGCCUGGGAGGUCAACAGAGGAUUGAGCAUCA
B3: chr16:94690093:94690094:+_ENSMUSG00000040785_ENSMUST00000117648|mus_hu|mus_mus_mus_hu_True|88_98 (ssRNA)
RNA: GGGAGUUCUACAGUCCGACGAUCGGGCUGGGAUGACAGCAGACAGCAUCUUCCCAGAGGGGGAAAAAGUCUUAGUCGAUACUAAUUAAAAAGUGUUAAUGAUUUUUGAAAAUCAGAUUACAUCUAUAAAAGAUGAAAAGCAAACAACAGAGGAUUGAGCAUCA
B4: chr17:41352247:41352248:+_ENSG00000188554_ENST00000341165|hu_mus|FALSE|FALSE (ssRNA)
RNA: GGGAGUUCUACAGUCCGACGAUCAGACUGACUUUGGACUUCUUCAUCUUGGACUUCCUCCUCUUCCUCAACGACUUCUUCCUCAACAAUGUGGACAAUCUCCUCCCUCUCAUCUCCACGCGGUCCUUCUUCAGGCAAGGCAAACAACAGAGGAUUGAGCAUCA
B5: chr1:220276048:220276049:+_ENSG00000067704_ENST00000302637|hu_hu|hu_hu_hu_mus_True|8_8 (ssRNA)
RNA: GGGAGUUCUACAGUCCGACGAUCGCAAAUUGCCUGGUUGGCGGGAAUUGUCCAAGGCUGGGUGGUCCAAACUAAAACGCUAACAGGGGAUGAGGCAUCUGUAAGAGACUCCAACUUCGGAGGAGGUUUUAAGAGAGGGAAUCUCAACAGAGGAUUGAGCAUCA
B6: chr3:148802587:148802588:-_ENSG00000071794_ENST00000310053|hu_mus|hu_hu_hu_mus_False|38_68 (ssRNA)
RNA: GGGAGUUCUACAGUCCGACGAUCUCCAACAACUUGUCCUCUCAUAGUUCCAAAUAAAACCAAAUCUACUUCUUCAUCACUCGUUAGGAAGUCAUCUGGAGGGAUAAUGUCUUGGAAUUCAAAAUGUGGCAAGAAAGUUGAGUACAACAGAGGAUUGAGCAUCA
B7: 70422386_70424602_1122_CDS_ENSMUSG00000032212_ENSMUST00000049263|mouse|control|control (ssRNA)
RNA: GGGAGUUCUACAGUCCGACGAUCAUUAGAAGACAGUCCACUGACCCAGAUGUUCUUGGUUGAGCUUCCACUGCUCCCACCAGCACUGCCUGUGCUCCCUUUGUCAUCUUUAGAUGAUGUCUUGCUGUCUUUAGAUUCCUUUGACAACAGAGGAUUGAGCAUCA
B8: chr12:16048344:16048345:+_ENSG00000023734_ENST00000419869|hu_mus|FALSE|FALSE (ssRNA)
RNA: GGGAGUUCUACAGUCCGACGAUCAGAUCGUCCAUAAGUAAUAACCAAAAUCUCUCCUUCAGGAAUAUACUCCAUGCUGCUAACAGACAUAUUAAAAUUCAGAGAUUUCACUUCUGUCAUUGUGGCAUGAUCCCAGAGCCGAACCAACAGAGGAUUGAGCAUCA
B9: chr16:94664741:94664742:+_ENSMUSG00000040785_ENSMUST00000117648|mus_hu|mus_mus_mus_hu_False|1_18 (ssRNA)
RNA: GGGAGUUCUACAGUCCGACGAUCUGGUACUGAUCUUGGUAGCUGAUAUUCAGGAGAAAGGCUGGCCAAGGGUGUAUAUAUGCUGGUGUACUGGGGCAAACCUGGUAACACGUUUAUGUACGCUGGUGGUGUCUGGGUGCCAAACAACAGAGGAUUGAGCAUCA
B10: 25285542_25285662_69_5pUTR_ENSMUSG00000033569_ENSMUST00000126626|mouse|control|control (ssRNA)
RNA: GGGAGUUCUACAGUCCGACGAUCGAUGCAUCUCCAGUAAUGCAAAGCGAGAGUGGGAAAAAAGCAAGCAGGCGGUGGUGCGGCGUGCAGAGAGCUGUCCAGCGCCGGAGGUGCUGAAAUCAGGACUAGCUCUGUCCAGCCCUCCAACAGAGGAUUGAGCAUCA
B11: chr1:109605286:109605287:-_ENSG00000197780_ENST00000461096|hu_mus|hu_hu_hu_mus_True|28_58 (ssRNA)
RNA: GGGAGUUCUACAGUCCGACGAUCAAGUUUCAGAGUAACAUUCAGUAACCUCUUUAAAUGCAAUUAUCCUUAUUAUAAACUAAGGGCAAUAAUAAUUUAAUACCGUAAGUAAAUACAACACAAAGCCUGAACCGCGAAAAUGGUCAACAGAGGAUUGAGCAUCA
B12: chr13:24894569:24894570:+_ENSMUSG00000019132_ENSMUST00000019276|mus_mus|FALSE|FALSE (ssRNA)
RNA: GGGAGUUCUACAGUCCGACGAUCCUGAUUAAUUCUUAGUUAUUUCAGAUUUCACUACUGCUAUGAACUGUCAGUGCUUUGCUAUUGAUUACACUUGGUGGUGAGCAAAGAGAAAAGUGCAAAAUCAGCAGAGAAAGAAGGGGACAACAGAGGAUUGAGCAUCA
B13: chr11:100882373:100882374:+_ENSMUSG00000019302_ENSMUST00000044721|mus_mus|mus_mus_mus_hu_True|28_48 (ssRNA)
RNA: GGGAGUUCUACAGUCCGACGAUCUUCCUGGUUUGUGUUGAUUUCCUUCAGUUCAUUUUCAAUCUUCUCAAAAUUGGCCUCUAAGUCGAUCAUGUCCCGGGGGAAGGGCACCUCUGGGUUUUCACCGGUGUCCAUAAUCGGAAUCAACAGAGGAUUGAGCAUCA
B14: chr2:10580766:10580767:-_ENSG00000115758_ENST00000405333|hu_mus|motif|central (ssRNA)
RNA: GGGAGUUCUACAGUCCGACGAUCCUCCUAGCCUUCCAUACUGCAUUGGUGCCAACCCUACUCUCACAAAGACAUCCCAAACGGGCAGUAAGUUAAAUGGUCCCCCCAAAUGCCUUAACACAAGCUAAACUUGCAGGCAAGAGCCAACAGAGGAUUGAGCAUCA

The binders below were run against T1, UNK ZnF1-3 (assay: nsRBNS (natural sequence RNA bind-n-seq); RBNS binding buffer (assumed for nsRBNS): 25 mM Tris pH 7.5, 150 mM KCl, 3 mM MgCl2, 0.01% Triton X-100, 500 ug/ml BSA, 20 U/ml SUPERase-In, 4 C; UNK is unkempt and MSI1 is Musashi-1; names of the RNAs are library labels; protein concentration not given here; high values mean tight binding).

How did the binding signal turn out when B1 was run?
The binding signal was 0.643 enrichment R.

Which binding signal does the source give for B2 here?
Its binding signal is 1.38 enrichment R.

Which binding signal does the source give for B3 here?
The binding signal was 2.25 enrichment R.

For B4, which binding signal is on record?
Its binding signal is 0.961 enrichment R.

For B5, which binding signal is on record?
Its binding signal is 1.78 enrichment R.

Which binding signal does the source give for B6 here?
The binding signal was 1.27 enrichment R.

Which binding signal does the source give for B7 here?
The binding signal was 0.455 enrichment R.

B8 was tested. Which binding signal did it give?
Its binding signal is 1.22 enrichment R.

B9 was tested. Which binding signal did it give?
Its binding signal is 0.966 enrichment R.

For B10, which binding signal is on record?
Its binding signal is 1.33 enrichment R.

For B11, which binding signal is on record?
Its binding signal is 1.1 enrichment R.

With B12 as the binder, how does the binding signal read?
Its binding signal is 1.16 enrichment R.

How did the binding signal turn out when B13 was run?
The binding signal was 0.453 enrichment R.

B14 was tested. Which binding signal did it give?
Its binding signal is 1.58 enrichment R.
